# Measured values from EPA's CvTdb concentration-time database.
# The source gives many values for each of these; only a part stands here.
# Key:
# rat [1] = test: concentration in expired air after dosing; details: dosed: 1,1-dichloroethylene, 300 ppm, inhalation, duration: 3 hr, male, Sprague-Dawley
# Mouse [2] = test: concentration in plasma after dosing; details: 1 h; dosed: 2,4-Dichlorophenoxyacetic acid; 2.0 mg/kg; oral; Male; B6C3F1
# Rat [3] = test: concentration in plasma after dosing; details: dosed: 2,4-Dichlorophenoxyacetic acid, 7.0 mg/kg, oral, Male, Sprague-Dawley
# Mouse [4] = test: concentration in plasma after dosing; details: 1 h; dosed: 2,4-Dichlorophenoxyacetic acid; 2.0 mg/kg; oral; Male; B6C3F1; remark: listed apart in the source
# Rat [5] = test: concentration in plasma after dosing; details: dosed: 2,4-Dichlorophenoxyacetic acid, 2.0 mg/kg, iv, Male, Sprague-Dawley
# Rat [6] = test: concentration in plasma after dosing; details: dosed: 2,4-Dichlorophenoxyacetic acid, 7.0 mg/kg, oral, Male, Sprague-Dawley; remark: listed apart in the source
# Mouse [7] = test: concentration in plasma after dosing; details: 1 h; dosed: 2,4-Dichlorophenoxyacetic acid; 1.0 mg/kg; oral; Male; B6C3F1
# Rat [8] = test: concentration in plasma after dosing; details: dosed: 2,4-Dichlorophenoxyacetic acid, 2.0 mg/kg, iv, Male, Sprague-Dawley; remark: listed apart in the source
# Mouse [9] = test: concentration in plasma after dosing; details: 1 h, dosed: 2,4-Dichlorophenoxyacetic acid, oral, Male, B6C3F1
# Rat [10] = test: concentration in plasma after dosing; details: dosed: 2,4-Dichlorophenoxyacetic acid, Male, Sprague-Dawley
# Mouse [11] = test: concentration in plasma after dosing; details: 1 h; dosed: 2,4-Dichlorophenoxyacetic acid; 5.2 mg/kg; oral; Male; B6C3F1
# Mouse [12] = test: concentration in plasma after dosing; details: 1 h; dosed: 2,4-Dichlorophenoxyacetic acid; 5.2 mg/kg; oral; Male; B6C3F1; remark: listed apart in the source
# Mouse [13] = test: concentration in plasma after dosing; details: 1 h; dosed: 2,4-Dichlorophenoxyacetic acid; 1.0 mg/kg; oral; Male; B6C3F1; remark: listed apart in the source
compound,measurement,setting,value
"C=C(Cl)Cl [1,1-dichloroethylene]",concentration in expired air,rat [1]; 17 s,267 ppm
same,concentration in expired air,rat [1]; 82 s,30.4 ppm
same,concentration in expired air,rat [1]; 0.1004 h,10.5 ppm
same,concentration in expired air,rat [1]; 0.1524 h,8.36 ppm
same,concentration in expired air,rat [1]; 0.2602 h,6.83 ppm
same,concentration in expired air,rat [1]; 23.5 min,6.59 ppm
same,concentration in expired air,rat [1]; 0.4994 h,6.65 ppm
same,concentration in expired air,"rat [1]; -0.1267 h, during exposure",266 ppm
same,concentration in expired air,"rat [1]; -0.2578 h, during exposure",261 ppm
same,concentration in expired air,"rat [1]; -0.4049 h, during exposure",258 ppm
same,concentration in expired air,"rat [1]; -0.5361 h, during exposure",254 ppm
same,concentration in expired air,"rat [1]; -0.6635 h, during exposure",252 ppm
same,concentration in expired air,"rat [1]; -0.7949 h, during exposure",250 ppm
same,concentration in expired air,"rat [1]; -0.9303 h, during exposure",249 ppm
same,concentration in expired air,"rat [1]; -1.086 h, during exposure",247 ppm
same,concentration in expired air,"rat [1]; -1.209 h, during exposure",246 ppm
same,concentration in expired air,"rat [1]; -1.345 h, during exposure",245 ppm
same,concentration in expired air,"rat [1]; -1.48 h, during exposure",245 ppm
same,concentration in expired air,"rat [1]; -1.591 h, during exposure",242 ppm
same,concentration in expired air,"rat [1]; -1.731 h, during exposure",240 ppm
same,concentration in expired air,"rat [1]; -1.858 h, during exposure",239 ppm
same,concentration in expired air,"rat [1]; -1.994 h, during exposure",237 ppm
same,concentration in expired air,"rat [1]; -2.065 h, during exposure",234 ppm
same,concentration in expired air,"rat [1]; -2.136 h, during exposure",228 ppm
same,concentration in expired air,"rat [1]; -2.2 h, during exposure",227 ppm
same,concentration in expired air,"rat [1]; -2.271 h, during exposure",222 ppm
same,concentration in expired air,"rat [1]; -2.343 h, during exposure",218 ppm
same,concentration in expired air,"rat [1]; -2.402 h, during exposure",217 ppm
same,concentration in expired air,"rat [1]; -2.466 h, during exposure",214 ppm
same,concentration in expired air,"rat [1]; -2.533 h, during exposure",210 ppm
same,concentration in expired air,"rat [1]; -2.593 h, during exposure",206 ppm
same,concentration in expired air,"rat [1]; -2.656 h, during exposure",202 ppm
same,concentration in expired air,"rat [1]; -2.723 h, during exposure",199 ppm
same,concentration in expired air,"rat [1]; -2.795 h, during exposure",195 ppm
same,concentration in expired air,"rat [1]; -2.858 h, during exposure",192 ppm
"O=C(O)COc1ccc(Cl)cc1Cl [2,4-Dichlorophenoxyacetic acid]",concentration in plasma,Mouse [2],7710 ng/mL
same,concentration in plasma,Rat [3]; 5 min,6880 ng/mL
same,concentration in plasma,Rat [3]; 1 h,7260 ng/mL
same,concentration in plasma,Rat [3]; 8 h,675 ng/mL
same,concentration in plasma,Mouse [4],6360 ng/mL
same,concentration in plasma,Rat [5]; 5 min,21800 ng/mL
same,concentration in plasma,Rat [5]; 1 h,6020 ng/mL
same,concentration in plasma,Rat [5]; 1.5 h,2870 ng/mL
same,concentration in plasma,Rat [6]; 5 min,7320 ng/mL
same,concentration in plasma,Rat [6]; 1 h,19100 ng/mL
same,concentration in plasma,Rat [6]; 8 h,2340 ng/mL
same,concentration in plasma,Mouse [7],2190 ng/mL
same,concentration in plasma,Rat [8]; 5 min,17400 ng/mL
same,concentration in plasma,Rat [8]; 1 h,8450 ng/mL
same,concentration in plasma,Rat [8]; 1.5 h,2240 ng/mL
same,concentration in plasma,Mouse [9]; 1.0 mg/kg,1400 ng/mL
same,concentration in plasma,Mouse [9]; 2.0 mg/kg,3690 ng/mL
same,concentration in plasma,Mouse [9]; 5.2 mg/kg,20200 ng/mL
same,concentration in plasma,"Rat [10]; 5 min, 2.0 mg/kg, iv",20700 ng/mL
same,concentration in plasma,"Rat [10]; 5 min, 7.0 mg/kg, oral",5830 ng/mL
same,concentration in plasma,"Rat [10]; 1 h, 2.0 mg/kg, iv",7020 ng/mL
same,concentration in plasma,"Rat [10]; 1 h, 7.0 mg/kg, oral",3790 ng/mL
same,concentration in plasma,"Rat [10]; 1.5 h, 2.0 mg/kg, iv",2480 ng/mL
same,concentration in plasma,"Rat [10]; 8 h, 7.0 mg/kg, oral",4700 ng/mL
same,concentration in plasma,Mouse [11],19700 ng/mL
same,concentration in plasma,Mouse [12],14600 ng/mL
same,concentration in plasma,Mouse [13],1950 ng/mL
